According to PubChem BioAssay AID485344 (National Center for Advancing Translational Sciences (NCATS), 2010):
The campaign covered roughly 340,000 compounds. About 6,900 (2%) were called active. Cut-off read from the data, not from the text of the source: active = inhibition above about 30%; inactive = below that, where a call was filed. Only a part is listed here, and it is no random draw. Where no call is shown, the source filed none.
Note: 0% is about no effect.

These compounds were tested against D(2) dopamine receptor (Homo sapiens) (UniProt P14416) (assay: HTS Assay for Allosteric Antagonists of the Human D2 Dopamine Receptor: Primary Screen for Antagonists). Settings: HEK293 TREx D2 cells, calcium flux, dopamine EC80; at 10 µM; stronger effect = higher value.
Chain of UniProt P14416 (P14416 whole entry, looked up): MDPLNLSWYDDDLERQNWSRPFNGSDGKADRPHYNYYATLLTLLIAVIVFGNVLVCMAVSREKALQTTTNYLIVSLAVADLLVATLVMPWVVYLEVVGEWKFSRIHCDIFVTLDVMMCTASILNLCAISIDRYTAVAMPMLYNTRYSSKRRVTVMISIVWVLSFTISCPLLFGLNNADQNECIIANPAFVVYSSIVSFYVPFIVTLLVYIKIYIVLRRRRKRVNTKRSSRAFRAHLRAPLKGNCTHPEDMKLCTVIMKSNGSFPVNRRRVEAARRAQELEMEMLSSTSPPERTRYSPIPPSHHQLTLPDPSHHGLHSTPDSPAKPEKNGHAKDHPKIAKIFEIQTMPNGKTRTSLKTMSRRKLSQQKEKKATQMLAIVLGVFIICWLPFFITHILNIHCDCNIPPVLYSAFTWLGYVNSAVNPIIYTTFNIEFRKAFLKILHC
Procedure, shortened: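 Calcium flux kinetic readout in an inducible HEK293 TREx D2 line plated overnight at 30 C. After 180 s compound exposure, an EC80 dopamine challenge follows with another 180 s kinetic read to detect antagonism.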
For `CCOCCCNC(=O)c1cc2c(-c3ccc(OC)c(OC)c3)nn(C)c2s1`, the inhibition was -6.51%. `COCCN1CCc2nc(SCC(=O)Nc3ccc(Br)cc3)[nH]c(=O)c2C1` showed an inhibition of 15.9%. In the case of `CC(c1ccccc1)n1cc(C(=O)NCC2CCCO2)nn1` (stereo unspecified), the inhibition is reported as active: 39.6%. For `COc1cccc2cc(C(=O)NCc3ccccn3)c(=O)oc12`, the inhibition was active: 43.7%. In the case of `COc1cccc(/C=C/C(=O)Nc2ccc3c(c2)OCCO3)c1OC`, the inhibition is reported as active: 69.1%. Compound `Cc1cccc(-c2c3c(=O)n(C)c(=O)n(C)c3cn2-c2cc(N)c(Cl)cc2Cl)c1` has an inhibition of -12%. `CN(C)c1oc(/C=C/c2ccc(F)cc2)nc1C#N` gave an inhibition of -0.64%. Compound `CCN(c1ccccc1)c1nnc(NC(=O)Nc2cccc(Cl)c2C)s1` has an inhibition of 2.93%. `CC(=O)c1ccc(NC(=O)Nc2nnc(N3CCCC(C)C3)s2)cc1` (stereo unspecified) was tested, and the inhibition was 19.4%. Work on `CSc1ccc(-c2nc3ncccn3c2Nc2ccc(C)c(C)c2)cc1` yielded an inhibition of 0.335%. `Nc1cc(=O)nc(SCC(=O)Nc2cccc(Cl)c2)n1CCc1ccccc1` was tested, and the inhibition was 9.45%. `CCN(CC)C(=O)c1sc(NC(=O)C(C)Sc2nc(-c3ccccc3)cc(C(F)(F)F)n2)c(C(=O)OC)c1C` (stereo unspecified) was tested, and the inhibition was -9.9%. `CCC(=O)Nc1ccc(S(=O)(=O)NCc2ccc3c(c2)CCN3C(=O)c2ccc(C)cc2)cc1` showed an inhibition of 2.03%. `COC(=O)c1ccccc1NC(=O)CCC(=O)N1CCOc2ccccc21` showed an inhibition of 2.9%. In the case of `COc1ccccc1Cn1ccn(Cc2c(F)cccc2Cl)c(=O)c1=O`, the inhibition is reported as 13.8%. `CCOC(=O)c1c(-c2ccccc2)csc1NC(=O)c1nc(S(=O)(=O)CC)ncc1Cl` gave an inhibition of -3.54%. With `Cc1oc(C)c2c(=O)cc(-c3ccc4c(c3)OCO4)cc(OC(=O)c3ccccc3Cl)c12` the inhibition was -12.9%. Compound `Cc1c(Cl)cccc1NC(=O)Cn1c(=O)nc(-c2ccccc2)c2ccccc21` has an inhibition of 11.6%. `CCCNC(=O)C1CCN(c2ncnc3c2nc2n3CCCCC2)CC1` showed an inhibition of 15.5%. `O=C(Cn1nc2n(c1=O)-c1ccccc1SC2)N/N=C/c1cccs1` was tested, and the inhibition was active: 41.4%. `COc1ccc([N+](=O)[O-])cc1NC(=O)CCN1CCN(c2ccccc2OC)CC1` was tested, and the inhibition was active: 101%. In the case of `C/C(=N\NC(=O)c1ccc(Br)cc1)c1cccc(NC(=O)c2cccnc2)c1`, the inhibition is reported as active: 32%. Compound `CCOC(=O)N1CCc2c(sc(NCc3ccc(OC)c(OC)c3OC)c2C(=O)Nc2ccc(OC)cc2OC)C1` has an inhibition of 20.5%. Work on `CCCC(=O)NCC(c1ccc2c(c1)OCO2)N1CCN(c2ccccc2)CC1` (stereo unspecified) yielded an inhibition of 14.6%. In the case of `CCCCCOc1ccc(/C=C/C(=O)Nc2sc(C(C)=O)c(C)c2C(=O)OCC)cc1OC`, the inhibition is reported as 6.88%. For `CCc1nnc(NC(=O)c2nc(SCc3ccccc3C)ncc2Cl)s1`, the inhibition was 16.7%. For `CCc1ccc(-n2c(=O)c3sc4ccccc4c3n(Cc3cccc(F)c3)c2=O)cc1`, the inhibition was 19.7%. With `Cn1cc(S(=O)(=O)N2CCCCCC2)cc1C(=O)NCc1ccccc1Cl` the inhibition was -15.6%. Work on `CCOc1ccc(-n2c(-c3ccccc3)c(C)n3c4c(=O)n(C)c(=O)n(C)c4nc23)cc1` yielded an inhibition of -5.47%. Work on `COc1ccccc1CNC(=O)c1ccc2nc(-c3ccccc3)c(-c3ccccc3)nc2c1` yielded an inhibition of 5.74%. `CCn1cc(C(=O)NCc2ccc(C)cc2)c(=O)c2cc(S(=O)(=O)N3CCCCCC3)ccc21` was tested, and the inhibition was -11.1%. `CCOc1ccc(CNC(=O)c2ccc(NC(=O)N3CCCCc4ccccc43)cc2)cc1OC` gave an inhibition of 7.15%. `O=C(CCc1nc2cccnc2n1Cc1cccs1)Nc1cccc(Cl)c1` gave an inhibition of -6.57%. For `CCCCN(C)CCCNC(=O)CC1Oc2ccccc2NC1=O` (stereo unspecified), the inhibition was active: 62.5%. Compound `Cc1cccc(NS(=O)(=O)c2ccc(-n3cccn3)cc2)c1C` has an inhibition of -1.05%. In the case of `Cc1nn(C)c2c1c(C(F)(F)F)cc(=O)n2Cc1cccc(Br)c1`, the inhibition is reported as 2%. In the case of `CC(C)CNc1nc(Oc2ccc(OCC(N)=O)nn2)nc(N2CCOCC2)n1`, the inhibition is reported as 11.3%. `O=S(=O)(Nc1nc2n(n1)C(c1ccc(F)cc1)C=C(c1ccccc1)N2)c1ccc(Cl)cc1` (stereo unspecified) gave an inhibition of -7.33%. In the case of `NC(=O)C1CCN(C(=O)CN2CCc3ccccc32)CC1`, the inhibition is reported as active: 45.3%. Compound `Cc1cccc(N2CCN(C3(c4ccccc4)C(=O)c4ccccc4C3=O)CC2)c1C` has an inhibition of 9.69%. Compound `Cc1ccc(S(=O)(=O)N2CCOCC2)cc1C(=O)Nc1ccccc1C(=O)O` has an inhibition of -8.36%. Work on `O=S(=O)(Nc1ccc2nc(-c3cccc(Cl)c3)oc2c1)c1ccccc1` yielded an inhibition of -3.46%. Compound `Cc1ccc2onc(CC(=O)N(C)c3ccccc3)c2c1` has an inhibition of 20.5%. In the case of `CCc1ccc(CNC(=O)c2cc(-c3ccc(Br)s3)nc3ccccc23)cc1`, the inhibition is reported as -19.9%. With `O=C(Nc1ccccc1)c1cccc(S(=O)(=O)Nc2cccc(F)c2)c1` the inhibition was -18.8%. `COc1cccc(-c2ccc3c(N)c(C(=O)NCc4ccc(Cl)cc4)sc3n2)c1` gave an inhibition of -4.14%. With `CCc1ccc(NC(=O)Cn2c(=O)oc3cc(S(=O)(=O)N4CCCCCC4)ccc32)cc1` the inhibition was 3.27%. For `CC(C)Sc1ncc(Cl)c(C(=O)Nc2nnc(C(C)C)s2)n1`, the inhibition was -1.96%. `COc1cc(C)c(/C=C(\C#N)C(=O)Nc2ccc(C)cc2)cc1C(C)C` was tested, and the inhibition was active: 74.7%. `CN(C(=O)C(=O)Nc1ccc2nc3n(c(=O)c2c1)CCCCC3)c1cccc(C(F)(F)F)c1` gave an inhibition of 0.688%. Work on `COc1ccc(-c2noc(-c3cccnc3NCc3ccco3)n2)cc1` yielded an inhibition of 17.4%. In the case of `COc1ccc(O)c(CN2CCN(CCCc3ccccc3)C(CCO)C2)c1` (stereo unspecified), the inhibition is reported as active: 74.8%. `Cc1cccc(-n2c(=O)c3c(c4cc(C)ccc4n3C)n(CC(=O)NCCC3=CCCCC3)c2=O)c1` gave an inhibition of -1.53%. With `CCC1CN(C(=O)N2CCC(C(=O)NCCN(CC)CC)CC2)c2ccccc2O1` (stereo unspecified) the inhibition was -4.08%. With `CCOC(=O)CSc1nc2ccccc2c(=O)n1CCc1ccc(OC)c(OC)c1` the inhibition was 16.1%. With `COc1ccc(-c2onc(C)c2C)cc1S(=O)(=O)NCC1CCN(Cc2ccccc2F)CC1` the inhibition was -14.3%. Compound `CCc1cccc(C)c1NC(=O)CSc1nc(C)cc(C)c1C(=O)Nc1ccccc1` has an inhibition of -15%. `CC(=O)Nc1cc(C(=O)NCc2ccc(C)cc2)ccc1Sc1ccc(C)cc1` was tested, and the inhibition was -13.3%. With `O=C(CC(c1cccs1)N1Cc2ccccc2C1=O)Nc1ccc(F)c(Cl)c1` (stereo unspecified) the inhibition was -0.402%. Compound `C=CCC(CC=C)(CNC(=O)C(=O)Nc1cccc(C(F)(F)F)c1)c1ccccc1` has an inhibition of -22.7%. In the case of `CCc1ccc(-c2nc(CN3CCCC(C(=O)N4CCN(c5cc(Cl)ccc5C)CC4)C3)c(C)o2)cc1` (stereo unspecified), the inhibition is reported as -8.89%. Work on `CCOC(=O)c1ccc(N2CCN(c3cccc(Cl)c3)CC2)c(NC(=O)Nc2ccc(OC)cc2OC)c1` yielded an inhibition of 0.34%. With `N#Cc1ccc(Nc2ccccc2)c(N)c1` the inhibition was active: 30.9%. `COc1ccc(Cl)cc1NC(=O)CN(C)S(=O)(=O)c1ccc2c(c1)CCCN2C(C)=O` showed an inhibition of 20.7%. `O=C(Cn1c(-c2cccs2)cc2cc(Cl)ccc21)N1CCN(c2ccccc2)CC1` showed an inhibition of 5.34%. Compound `CCc1ccc(NC(=O)c2sc3nc(C)c(Cl)c(C)c3c2N)cc1` has an inhibition of 5.75%. In the case of `COc1ccc(-c2cccc(NS(=O)(=O)c3cc(C)c(OC)c(C)c3C)c2)nn1`, the inhibition is reported as -1.94%. `CCOc1ccccc1C(=O)N1CC(=O)Nc2ccc(Cl)cc2C1c1ccccc1` (stereo unspecified) showed an inhibition of -17.3%. `Cc1ccc(NC(=O)C2CCCN2S(=O)(=O)c2ccc3c(c2)CCCC(=O)N3)cc1C` (stereo unspecified) showed an inhibition of 10.5%. With `O=C(CN1CCN(c2ccccc2)CC1)Nc1ccc(Oc2ccccc2)cc1` the inhibition was active: 57.7%. For `COc1ccccc1CNC(=O)CSc1ncc2c(n1)-c1ccc(Cl)cc1N(Cc1ccccc1)S2(=O)=O`, the inhibition was 11.9%. With `COc1ccc(NC(=O)C(c2ccc(C)cc2)N(C)C(=O)Cc2cccs2)cc1` (stereo unspecified) the inhibition was 3.46%. With `Clc1ccc(CN2CCC(Cc3ccccc3)CC2)cc1` the inhibition was active: 48.3%. `Cc1cccc(-c2nn3c(=O)cc(CN4CCN(S(=O)(=O)c5ccc(Cl)cc5)CC4)nc3s2)c1` gave an inhibition of 6.59%. With `CCC(C(=O)Nc1ccccc1C(=O)OC)n1nc(C)c2c(C)n(-c3ccc(C)cc3)nc2c1=O` (stereo unspecified) the inhibition was -10.5%. `COc1ccccc1C(=O)OCc1cc(=O)n2nc(C3CC3)sc2n1` gave an inhibition of 4.01%. For `CC(C)Cn1c(N)c(C(=O)COC(=O)c2c(F)cccc2F)c(=O)n(C)c1=O`, the inhibition was active: 45.2%. Work on `CCC1CCc2nc3sc(C(=O)Nc4ccc(F)c(Cl)c4)c(N)c3cc2C1` (stereo unspecified) yielded an inhibition of -10.5%. Compound `Cc1ccc(C)c(NC(=O)c2ccc3c(c2)CCN3S(C)(=O)=O)c1` has an inhibition of 20.8%. With `Cc1nc(-c2ccc(Cl)cc2)sc1CCNC(=O)c1ccc(C(F)(F)F)cc1` the inhibition was -2.64%. In the case of `Cc1ccc(C)c(NC(=O)CCn2nc(C)c3c(C)n(-c4ccccc4)nc3c2=O)c1`, the inhibition is reported as -7.15%. Work on `O=C(CCn1ccc2cc(S(=O)(=O)N3CCCC3)ccc21)NCc1cccc(F)c1` yielded an inhibition of 4.91%. With `COC(=O)CSc1nc(-c2ccc(F)cc2)cc(C(F)(F)F)n1` the inhibition was -16.2%. For `COc1cc(OC)c(C2Nc3ccccc3-c3nnc(SCc4ccccc4)nc3O2)cc1OC` (stereo unspecified), the inhibition was -20%. `COc1ccc(OC)c(C2N=C(N)Nc3nc4ccccc4n32)c1` (stereo unspecified) gave an inhibition of -25.5%. In the case of `COc1ccc(NC(=O)Cn2c(=O)n(Cc3nc(C)no3)c(=O)c3cc4c(cc32)OCO4)cc1OC`, the inhibition is reported as -4.58%. `Cc1cccc(C)c1-n1ncc(C(=O)NCCN2CCOCC2)c1C1CCN(C(=O)OC(C)(C)C)CC1` gave an inhibition of -8.4%. `Cc1ccccc1Cn1c(=O)n(CCc2ccccc2)c(=O)c2c(C)c(C)sc21` was tested, and the inhibition was 0.1%. In the case of `COc1ccc(-c2nc(CN3CCC(C(=O)NCCCOC(C)C)CC3)c(C)o2)cc1OC`, the inhibition is reported as -0.878%. `COc1cccc(-n2cc(C(=O)NCc3ccccc3OC)c3ccccc3c2=O)c1` gave an inhibition of 15.9%. `CCc1cc2c(cc3c(=O)n(CC(=O)NCCc4ccc(OC)c(OC)c4)ncn32)s1` showed an inhibition of 6.2%. `COC(=O)c1cc(S(=O)(=O)NCC2CCN(Cc3cccc(F)c3)CC2)c[nH]1` showed an inhibition of 10%. Compound `CCCc1cc(C(=O)Nc2c(C)nn(Cc3ccc(C)cc3)c2C)no1` has an inhibition of -2.55%. Work on `O=C(CCn1c(=O)c2cccn2c2ccc(F)cc21)NCCc1ccccc1` yielded an inhibition of 18.3%. `CCC(=O)N1CCc2cc(CNC(=O)C(CC)c3ccccc3)ccc21` (stereo unspecified) was tested, and the inhibition was -23.4%. With `Cc1ccc(C)c(Nc2cc(C(=O)NC3CCCCC3)c3ccccc3n2)c1` the inhibition was 1.39%.
